Results as given in PubChem BioAssay AID1458 (National Center for Advancing Translational Sciences (NCATS), 2008).
Screen size: about 210,000 compounds; about 5,900 (2.8%) were called active. Inconclusive means that the source gave no clear call. Such entries were picked first, then a sample of the others. Calls come from the whole dose curve; as a rule, active = well fitted activation curve with a large enough effect; inconclusive = small, poorly fitted or top-dose-only effect; inactive = no such curve, though single readings can be large or run the other way. Potencies of inconclusive entries are doubtful fits and often do not repeat.

Test: qHTS Assay for Enhancers of SMN2 Splice Variant Expression; note: nearly all actives have a fitted effect of over 55% in size; for activity change, positive = activation: % of control where 0% means no effect
Conditions: HEK293 SMN2-luciferase splicing reporter, luminescence, 30-36 h; activity change, positive = activation: at 46.1 µM (top of the series)
Outline: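 HEK293 cells carry an SMN2 minigene-luciferase reporter in which exon 7 inclusion puts luciferase in frame. Cells were seeded at 2000 cells/well, attached for 10-12 hours, then exposed to compounds for 30-36 hours at 37C before ONE-Glo luminescence.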
Potency is the fitted concentration of half-maximal effect; tags give direction and shape of the fitted curve.

Q: For `COc1ccc(CNC(=O)C(c2ccc(C)o2)N(C(=O)c2csnn2)c2ccc(C(C)C)cc2)cc1` (stereo not drawn), which Potency is on record?
A: inconclusive: 7.94 µM [activator, partial curve]

Q: With `CC(C)CCNC(=O)c1ccc(Cl)c(N)c1` as the compound, how does the Potency read?
A: inconclusive: 20 µM [activator, partial curve, poor fit]

Q: With `COc1ccc(-c2coc3cc(OC)cc(O)c3c2=O)cc1` as the compound, how does the Potency read?
A: active: 12.6 µM

Q: With `Cc1ccc(C(=O)Nc2cccc(C(=O)NCc3ccco3)c2)cc1` as the compound, how does the Potency read?
A: inconclusive: 0.112 µM [activator, full curve, poor fit]

Q: With `COc1ccccc1N1CCN(S(=O)(=O)c2ccc(Br)s2)CC1` as the compound, how does the Potency read?
A: inconclusive: 5.01 µM [activator, single point]

Q: With `Cc1nn(-c2ccc(Cl)nn2)c(=O)c2ccccc12` as the compound, how does the Potency read?
A: inconclusive: 28.2 µM [activator, single point]

Q: With `O=C(/C=C/c1cccs1)Nc1scc(-c2ccccc2)c1C(=O)O` as the compound, how does the Potency read?
A: active: 11.2 µM

Q: With `CC(=C/c1ccccc1)/C=C1/SC(N2CCOCC2)=NC1=O` as the compound, how does the Potency read?
A: inconclusive: 0.0891 µM [activator, full curve, poor fit]

Q: With `CCOC(=O)C1CCCc2c1[nH]c1c(C(N)=O)cccc21` (stereo not drawn) as the compound, how does the “activity change, positive = activation” value read?
A: inactive: 24%

Q: With `CCc1nnc(NC(=O)c2oc3cc(C)c(C)cc3c2C)s1` as the compound, how does the Potency read?
A: inconclusive: 31.6 µM [activator, single point]

Q: For `NC(=O)C1=CN(C2OC(COP(=O)(O)OP(=O)(O)OC[C@H]3O[C@@H](n4cnc5c(N)ncnc54)[C@H](OP(=O)(O)O)[C@H]3O)C(O)C2O)C=CC1` (stereo partly drawn), which “activity change, positive = activation” value is on record?
A: inactive: 13.6%

Q: Which Potency does the source give for `CCCCSc1ccc2nc(-c3ccc(C#N)cc3)cn2c1` here?
A: inconclusive: 8.91 µM [activator, partial curve, poor fit]

Q: For `COc1ccc(NC(=O)c2ccccc2NC(=O)NC2CCCCC2)cc1`, which “activity change, positive = activation” value is on record?
A: inactive: 20.2%

Q: With `CC(C)OC(=O)CSc1nnc2c3ccccc3n(C)c2n1` as the compound, how does the “activity change, positive = activation” value read?
A: inactive: -7.76%

Q: Which “activity change, positive = activation” value does the source give for `CCN(CC)c1cc(C)c2cc(NC(=O)c3cccs3)ccc2n1` here?
A: inactive: -15%

Q: With `CCOc1ccc(-c2cc(NC(=O)c3cccc(Cl)c3)c(C(=O)OC)s2)cc1` as the compound, how does the “activity change, positive = activation” value read?
A: inactive: 13.5%

Q: With `NC(=O)C1CCN(C(=O)c2ccc(-c3ccccc3)cc2)CC1` as the compound, how does the Potency read?
A: inconclusive: 0.0028 µM [activator, full curve]

Q: Which “activity change, positive = activation” value does the source give for `COC(=O)c1cc(-c2ccc(OC)c(OC)c2)n[nH]1` here?
A: inactive: -16%

Q: With `COc1ccc(N(CC(=O)N2CCc3ccccc3C2)S(=O)(=O)c2ccc(C)cc2)cc1Cl` as the compound, how does the “activity change, positive = activation” value read?
A: inactive: -12.2%

Q: For `Cc1cc(NC(=O)c2sccc2C)n(-c2cccc(Cl)c2)n1`, which “activity change, positive = activation” value is on record?
A: inactive: -3.34%

Q: With `c1ccc(-c2cc3ncc4c(n3n2)-c2ccccc2OC4)cc1` as the compound, how does the activity change, positive = activation read?
A: inconclusive: 52.3% [activator]

Q: With `CCc1[nH]nc2c1C(c1ccc(Br)s1)C(C#N)=C(N)O2` (stereo not drawn) as the compound, how does the Potency read?
A: inconclusive: 14.1 µM [activator, single point]

Q: With `COc1ccc(N(CC(O)Cn2c(C)nc3ccccc32)S(=O)(=O)c2ccccc2)cc1` (stereo not drawn) as the compound, how does the Potency read?
A: inconclusive: 0.251 µM [activator, full curve, poor fit]

Q: For `Fc1ccc(-c2cnc(-c3cccs3)o2)cc1`, which “activity change, positive = activation” value is on record?
A: inactive: 17.1%

Q: For `Brc1ccc(C2CC(c3ccccc3)=Nc3ccccc3N2)cc1` (stereo not drawn), which Potency is on record?
A: active: 11.2 µM

Q: For `Nc1nc(NCc2c(F)cccc2Cl)nn1-c1ccccc1`, which activity change, positive = activation is on record?
A: inconclusive: 44.1% [activator]

Q: With `CC1(C)Cc2ccccc2-c2nnnn21` as the compound, how does the Potency read?
A: inconclusive: 0.158 µM [activator, partial curve, poor fit]

Q: Which “activity change, positive = activation” value does the source give for `O=C1CC(c2ccccc2)n2nc(NC(=O)c3ccccn3)nc2N1` (stereo not drawn) here?
A: inactive: 11.4%

Q: Which “activity change, positive = activation” value does the source give for `COc1ccc(-c2cc(C(=O)Oc3ccc(C)cc3)c3ccccc3n2)cc1` here?
A: inactive: 15.2%

Q: Which Potency does the source give for `Cc1cnc(NC(=O)c2cc3c(s2)CCCC3)s1` here?
A: inconclusive: 0.501 µM [activator, partial curve, poor fit]

Q: Which “activity change, positive = activation” value does the source give for `O=C(/C=C/c1ncc(C(F)(F)F)cc1Cl)OCc1ccccc1` here?
A: inactive: 5.44%

Q: With `O=S(=O)(/N=C(/Nc1ccccn1)c1ccccc1)c1ccc(Cl)cc1` as the compound, how does the Potency read?
A: inconclusive: 2.51 µM [activator, partial curve]

Q: Which Potency does the source give for `O=[N+]([O-])c1nn(-c2ccc3c(c2)OCCO3)n(O)c1=NCCC1=CCCCC1` here?
A: inconclusive: 0.501 µM [activator, full curve, poor fit]

Q: For `Cc1nnc(NC(=O)c2ccccc2F)s1`, which Potency is on record?
A: inconclusive: 11.2 µM [activator, partial curve, poor fit]

Q: Which Potency does the source give for `N#C/C(=C/c1ccc(OCc2ccccc2)cc1)C(=O)NC1CCCCC1` here?
A: inconclusive: 12.6 µM [activator, single point]

Q: For `Clc1ccc(C2=Nc3cc(Cl)ccc3OC2)cc1`, which Potency is on record?
A: inconclusive: 25.1 µM [activator, single point]

Q: Which Potency does the source give for `O=C(/C=C/c1cccs1)N1CCc2ccccc21` here?
A: active: 2.82 µM

Q: With `c1ccc2c(Cn3ccnc3)c[nH]c2c1` as the compound, how does the Potency read?
A: inconclusive: 15.8 µM [activator, partial curve]

Q: For `CCCC1=C(C(=O)OCC)C(/C=C/c2ccccc2)n2ncnc2N1` (stereo not drawn), which Potency is on record?
A: inconclusive: 3.16 µM [activator, single point]

Q: Which Potency does the source give for `O=C(O)c1cc(Nc2nc(N3CCOCC3)nc(N3CCOCC3)n2)ccc1Cl` here?
A: inconclusive: 1.12 µM [activator, single point]

Q: For `Cc1cc(=O)[nH]c(SCC(=O)Nc2cc(S(=O)(=O)N(C)C)ccc2Cl)n1`, which “activity change, positive = activation” value is on record?
A: inactive: -0.048%

Q: With `O=C(Nc1nnc(C2CC2)s1)c1ccco1` as the compound, how does the “activity change, positive = activation” value read?
A: inactive: 29.7%

Q: With `S=c1[nH]nc(Nc2ccccc2)s1` as the compound, how does the Potency read?
A: inconclusive: 14.1 µM [activator, partial curve]

Q: For `Cc1cc(OC(C)C(=O)N/N=C/CC(C)c2ccccc2)ccc1Cl` (stereo not drawn), which “activity change, positive = activation” value is on record?
A: inactive: 13.3%

Q: With `CCN(C(=O)COC(=O)c1[nH]c(=O)[nH]c(=O)c1N)c1ccccc1` as the compound, how does the Potency read?
A: inconclusive: 35.5 µM [activator, single point]

Q: For `Cc1nc(NCCc2ccc(S(N)(=O)=O)cc2)c2c3c(sc2n1)CCC3`, which Potency is on record?
A: inconclusive: 2 µM [activator, partial curve, poor fit]

Q: For `COc1ccc(C(c2c(NC(=O)c3ccccc3)sc(C)c2C)N2CCN(CCO)CC2)cc1` (stereo not drawn), which Potency is on record?
A: inconclusive: 3.16 µM [activator, partial curve, poor fit]

Q: For `CCc1nc2c(c(=O)c3ccccc3n2C)c(=O)n1-c1ccc(F)cc1`, which Potency is on record?
A: inconclusive: 0.0089 µM [activator, full curve, poor fit]

Q: For `Cc1nc(-c2ccccc2)sc1C(=O)/C=C/N(C)C`, which Potency is on record?
A: inconclusive: 15.8 µM [activator, single point]

Q: Which Potency does the source give for `Cc1ccc(/C=C(\C#N)c2nc3ccccc3[nH]2)s1` here?
A: inconclusive: 25.1 µM [activator, single point]

Q: With `O=S1(=O)NC(=NCc2ccccc2)c2ccccc21` as the compound, how does the “activity change, positive = activation” value read?
A: inactive: 11.7%

Q: With `O=C(Nc1nnc(-c2ccccc2)s1)c1ccc(F)cc1` as the compound, how does the Potency read?
A: inconclusive: 17.8 µM [activator, partial curve, poor fit]

Q: For `O=c1nc2ccccc2c2n1CC(CN1CCN(c3ccccc3F)CC1)N2` (stereo not drawn), which “activity change, positive = activation” value is on record?
A: inactive: 5.01%

Q: With `O=C(Nc1nc2ccc(S(=O)(=O)N3CCCC3)cc2s1)c1ccco1` as the compound, how does the “activity change, positive = activation” value read?
A: inactive: 3.48%

Q: With `O=C(COc1cccc(F)c1)N1c2ccccc2Sc2ccccc21` as the compound, how does the Potency read?
A: inconclusive: 11.2 µM [activator, single point]

Q: With `CCNC(=O)OCC(CC)NC(=O)OCC(C)C` (stereo not drawn) as the compound, how does the Potency read?
A: inconclusive: 3.98 µM [activator, single point]

Q: For `CC(C)n1nnc2ccccc2c1=O`, which Potency is on record?
A: inconclusive: 12.6 µM [activator, partial curve, poor fit]

Q: With `Cc1oc2c(CN3CCCC3)c(O)ccc2c(=O)c1-c1ccccc1` as the compound, how does the Potency read?
A: inconclusive: 39.8 µM [activator, partial curve, poor fit]

Q: For `O=C(N/C=C/c1ccccc1)Nc1ccc(Cl)cc1`, which Potency is on record?
A: inconclusive: 10 µM [activator, partial curve, poor fit]

Q: For `CC(=O)NC1Sc2ccccc2N=C1c1ccccc1` (stereo not drawn), which Potency is on record?
A: inconclusive: 20 µM [activator, partial curve, poor fit]

Q: Which Potency does the source give for `N#Cc1ccccc1NC(=O)CSc1nccn1CCc1ccccc1` here?
A: inconclusive: 8.91 µM [activator, partial curve]

Q: For `c1ccc2cc(-c3cc(-c4cc(-c5ccc6ccccc6c5)on4)no3)ccc2c1`, which Potency is on record?
A: inconclusive: 3.16 µM [activator, single point]

Q: With `CCOC(=O)C1=C(C)N(C)C(=S)NC1c1cc(OC)ccc1OC` (stereo not drawn) as the compound, how does the Potency read?
A: inconclusive: 35.5 µM [activator, single point]

Q: Which “activity change, positive = activation” value does the source give for `COc1cc(NC(=O)C2=C(N3CCOCC3)/C(=C/c3ccc(Cl)cc3)CC2)cc(OC)c1OC` here?
A: inactive: -10.3%

Q: Which “activity change, positive = activation” value does the source give for `O=C(Oc1cccc(/C=N/Nc2nc(Nc3ccccc3)nc(N3CCOCC3)n2)c1)c1ccco1` here?
A: inactive: 19.3%

Q: With `CCc1nnc(NC(=O)c2ccc3ccccc3n2)s1` as the compound, how does the Potency read?
A: active: 2.82 µM

Q: For `O=C(CS(=O)CC(=O)Nc1ccc(Cl)cc1)NCC1OCCc2ccccc21` (stereo not drawn), which Potency is on record?
A: inconclusive: 1.26 µM [activator, full curve]

Q: With `Fc1ccc(NC(=S)Nc2nccs2)cc1` as the compound, how does the Potency read?
A: inconclusive: 11.2 µM [activator, partial curve]

Q: With `Cc1cc(-n2nc(C)cc2C)nc(N)n1` as the compound, how does the Potency read?
A: inconclusive: 0.0028 µM [activator, full curve, poor fit]

Q: For `Cc1noc(N)c1C(=O)Nc1ccc(C(C)(C)C)cc1`, which Potency is on record?
A: inconclusive: 35.5 µM [activator, single point]

Q: With `CCOC(=O)CNc1c(-c2ccc(OC)cc2)nc2ccc(Cl)cn12` as the compound, how does the Potency read?
A: inconclusive: 14.1 µM [activator, single point]

Q: Which “activity change, positive = activation” value does the source give for `CCn1c(SCC(=O)c2ccc(Cl)cc2)nnc1-c1cccs1` here?
A: inactive: -6.67%

Q: For `COC(=O)Nc1nc(-c2ccccc2)c(C(=O)c2ccccc2)s1`, which Potency is on record?
A: inconclusive: 0.251 µM [activator, partial curve]
